Laboratory results reported in the RNAGym collection of RNA variant scans (doi:10.7554/elife.90254).
Read counts are not given, so values of variants with three or more changes are uncertain.

B1: LINE1-full (parent)
chain: UACGUAGGUGGUUUUCCCCUGAUAGUGCUAAGGGGGCCUGGAAGUUUGGACUGGGCAGAGCUCAACACAGCGUGGCAAAGUGGCUGUGGCUAGACUGCCUCUCUGGAUUCCUCGUCACUCAGCAGGGCAUCUCUGAGAGAAAUGCC

Variants of: B1
Assay: self-cleavage, relative activity (ratio to wild type); higher = more cleavage; in vitro, sequencing; the parent is a self-cleaving ribozyme

Variant | self-cleavage
UACGUAGGUGGCUUUCCCCUGAUAGUGCUAAGGGGGCCUGGAAGUUUGGACUGGGCAGGGCUCUACACAGCGUGGCAAAGUGGCUGUGGCUAGACUGCCUCUCUGGGUUCCUCGUCACUCAGCAGGGCAUCUCUGAGAGAAAUGCC | 0.24
UACGUAGGUGGCUUUCCCCUGAUAGUGCUAAGGGGGCCUGGAAGUUUGGACUGGGCAGGGCUCAACACAGCGUGGCAAAGUGGCUGUGGCUAGACUGCCUCUCUGGGUUCCUCGUCUCUCAGCAGGGCAUCUCUGAGAGAAAUGCC | 0.16
UACGUAGGUGGCUUUCCCCUGAUAGUGCUAAGGGGGCCUGGAAGUUUGGACUGGGCAGGGCUCAACACAGCGUGGCAAAGUGGCUGUGGCUAGACUGCCACUCUGGAUUCCUCGUCACUCAGCAGGGCAUCUCUGAGAGAAAUGCC | 0.32
UACGUAGGUGGCUUUCCCCUGAUAGUGCUAAGGGGGCCUGGAAGUUUGGACUGGGCAGAGCUCGACACAGCGUGGCAAAGUGGCUGUGGCUAGACUGCCUCUCUGGAUUCCUCGUCACUCAGCAGGGCACCUCUGAGAGGAAUGCC | 0
UACGUAGGUGGCUUUCCCCUGAUAGUGCUAAGGGGGCCUGGAAGUUUGGACUGGGCAGAGCUCUACACAGCGUGGCAAAGUGGCUGUGGCUAGACUGCCUCUCUGGAUUCCUCGCCACCCAGCAGGGCAUCUCUGAGAGAAAUGCC | 1.41
UACGUAGGUGGCUUUCCCCUGAUAGUGCUAAGGGGGCCUGGAAGUUUGGACUGGGCAGAGCUCUACACAGCGUGGCAAAGUGGCUGUGGCUAGACUGCCUCUCUGGAUUCCUCGUCACUCAGCAGGGCACCUCUGAGAGAAAUGCC | 0.76
UACGUAGGUGGCUUUCCCCUGAUAGUGCUAAGGGGGCCUGGAAGUUUGGACUGGGCAGAGCUCAGCACAGCGUGGCAAAGUGGCUGUGGCUAGACUGCCUCUCUGGAUUCCUCGUCACUCAGCAGGGCACCUCUGAGAGAAAUGCC | 0.28
UACGUAGGUGGCUUUCCCCUGAUAGUGCUAAGGGGGCCUGGAAGUUUGGACUGGGCAGAGCUCAACCCAGCGUGGCAAAGUGGCUGUGGCUAGACUGCCUCUCUGGAUUCCUCGUCACUCAGCAGGGCAUCUCUGAGAGAGAUGCC | 0
UACGUAGGUGGCUUUCCCCUGAUAGUGCUAAGGGGGCCUGGAAGUUUGGACUGGGCAGAGCUCAACGCAGCGUGGCAAAGUGGCUGUGGCUAGGCUGCCUCUCUGCAUUCCUCGUCACUCAGCAGGGCAUCUCUGAGAGGAAUGCC | 0
UACGUAGGUGGCUUUCCCCUGAUAGUGCUAAGGGGGCCUGGAAGUUUGGACUGGGCAGAGCUCAACGCAGCGUGGCAAAGUGGCUGUGGCUAGACUGCCUCUCUGGAUUCCUCGUCACUCAGCAGUGCAUCUCUGAGAGUAAUGCC | 0.29
UACGUAGGUGGCUUUCCCCUGAUAGUGCUAAGGGGGCCUGGAAGUUUGGACUGGGCAGAGCUCAACGCAGCGUGGCAAAGUGGCUGUGGCUAGACUGCCCCUCUGGAUCCCUCGUCACUCAGCAGGGCAUCUCUGAGAGAAAUGCC | 0
UACGUAGGUGGCUUUCCCCUGAUAGUGCUAAGGGGGCCUGGAAGUUUGGACUGGGCAGAGCUCAACGCAGCGUGGCAAAGUGGCUGUGGCUAGACUGCCUCUCUGGAUUCCUCGUCACUCAGCAGGGCACCUCUGAGAGAAAUGCC | 0
UACGUAGGUGGCUUUCCCCUGAUAGUGCUAAGGGGGCCUGGAAGUUUGGACUGGGCAGAGCUCAACUCAGCGUGGCGAAGUGGCUGUGGCUAGACUGCCUCUCUGGAUUCCUCGUCACUCAGCAGGGCAUCUCUGAGAGGAAUGCC | 0.15
UACGUAGGUGGCUUUCCCCUGAUAGUGCUAAGGGGGCCUGGAAGUUUGGACUGGGCAGAGCUCAACUCAGCGUGGCAAAGUGGCUGUGGCUAGACAGCCUCUCUGGAUUCCUCGUCACUCAGCAGGGCAUCUCUGAGAGAAAUGCC | 0.07
UACGUAGGUGGCUUUCCCCUGAUAGUGCUAAGGGGGCCUGGAAGUUUGGACUGGGCAGAGCUCAACUCAGCGUGGCAAAGUGGCUGUGGCUAGACUGCCUCUCUGGAUCCCUCGUCACUCAGCAGGGCAUCUCUGAGAGAAAUGCC | 0
UACGUAGGUGGCUUUCCCCUGAUAGUGCUAAGGGGGCCUGGAAGUUUGGACUGGGCAGAGCUCAACACGGCGUGGCAAAGUGGCUGUGGCUAGACUGCCUCUCUGGAUUCCUCGUCACUCAGCAGGGCAUCUCUGAGAGGAAUGCC | 0.81
UACGUAGGUGGCUUUCCCCUGAUAGUGCUAAGGGGGCCUGGAAGUUUGGACUGGGCAGAGCUCAACACAGCGUGGCCAAAUGGCUGUGGCUAGACUGCCUCUCUGGAUUCCUCGUCACUCAGCAGGGCAUCUCUGAGAGAGAUGCC | 0.96
UACGUAGGUGGCUUUCCCCUGAUAGUGCUAAGGGGGCCUGGAAGUUUGGACUGGGCAGAGCUCAACACAGCGUGGCGAAGUGGCUGUGGCUAGACUGCCACUCUGGGUUCCUCGUCACUCAGCAGGGCAUCUCUGAGAGAAAUGCC | 0.97
UACGUAGGUGGCUUUCCCCUGAUAGUGCUAAGGGGGCCUGGAAGUUUGGACUGGGCAGAGCUCAACACAGCGUGGCAGAGUAGCUGUGGCUAGACUGCCUCUCUGGAUUCCUCGUCACUCAGCAGGGCAUCUCUGAGAGAAAUGCC | 1.32
UACGUAGGUGGCUUUCCCCUGAUAGUGCUAAGGGGGCCUGGAAGUUUGGACUGGGCAGAGCUCAACACAGCGUGGCAGAGUGGCUCUGGCUAGACUGCCUCUCUGGAUUCCUCGUCGCUCAGCAGGGCAUCUCUGAGAGAAAUGCC | 0.19

Variant | self-cleavage
UACGUAGGUGGCUUUCCCCUGAUAGUGCUAAGGGGGCCUGGAAGUUUGGACUGGGCAGAGCUCAACACAGCGUGGCAGAGUGGCUGUGGCUAGACAGCCUCUCUGGAUUCCUCGUCACUCAGCUGGGCAUCUCUGAGAGAGAUGCC | 0.18
UACGUAGGUGGCUUUCCCCUGAUAGUGCUAAGGGGGCCUGGAAGUUUGGACUGGGCAGAGCUCAACACAGCGUGGCAGAGUGGCUGUGGCUAGACUGCCUCUCAGGAUUCCUCGUCACUCAGCAGGGCAUCUCUGAGAGAAAUGCC | 2.25
UACGUAGGUGGCUUUCCCCUGAUAGUGCUAAGGGGGCCUGGAAGUUUGGACUGGGCAGAGCUCAACACAGCGUGGCAAGGUGGCUGUGGCUAGACUGCCUCUCUGGAUUCCUCGUCGCUCAGCAGGGCAUCUCUGAGAGAAAUGCC | 1.31
UACGUAGGUGGCUUUCCCCUGAUAGUGCUAAGGGGGCCUGGAAGUUUGGACUGGGCAGAGCUCAACACAGCGUGGCAAGGUGGCUGUGGCUAGACUGCCUCUCUGGAUUCCUCGUCACUCAGCAGGUCAUCUCUGAGAGAAACGCC | 1.16
UACGUAGGUGGCUUUCCCCUGAUAGUGCUAAGGGGGCCUGGAAGUUUGGACUGGGCAGAGCUCAACACAGCGUGGCAAAGUGGCUGUGGCUUGACUGCCUCUCUGGAAUCCUCGUCACUCAGCAGGGCAUCUCUGAGAGGAAUGCC | 0.77
UACGUAGGUGGCUUUCCCCUGAUAGUGCUAAGGGGGCCUGGAAGUUUGGACUGGGCAGAGCUCAACACAGCGUGGCAAAGUGGCUGUGGCUAGGCUGCCUCUCUGGAUUCCUCGUCACUCAGCAGGGCAUCUCCGAGAGAAAUGCC | 0.24
UACGUAGGUGGCUUUCCCCUGAUAGUGCUAAGGGGGCCUGGAAGUUUGGACUGGGCAGAGCUCAACACAGCGUGGCAAAGUGGCUGUGGCUAGACUGCCUCUCUGGGUUCCUCGUCACUCGGCAGGGCAUCUCUGAGAGAAAUGCC | 1.53
UACGUAGGUGGCUUUCCCCUGAUAGUGCUAAGGGGGCCUGGAAGUUUGGACUGGGCAGAGCUCAACACAGCGUGGCAAAGUGGCUGUGGCUAGACUGCCUCUCUGGUUACCUCGUCGCUCAGCAGGGCAUCUCUGAGAGAAGUGCC | 2.33
UACGUAGGUGGCUUUCCCCUGAUAGUGCUAAGGGGGCCUGGAAGUUUGGACUGGGCAGAGCUCAACACAGCGUGGCAAAGUGGCUGUGGCUAGACUGCCUCUCUGGAUUCCUCGUCCCUCAGCAGGGCAUCUCAGAGAGAAAUGCC | 1.15
UACGUAGGUGGCUUUCCCCUGAUAGUGCUAAGGGGGCCUGGAAGUUUGGACUGGGCAGAGCUCAACACAGCGUGGCAAAGUGGCUGUGGCUAGACUGCCUCUCUGGAUUCCUCGUCGCUCAGCAGGGCAUCUCCGAGAGAAAUGCC | 0
UACGUAGGUGGCUUUCCCCUGAUAGUGCUAAGGGGGCCUGGAAGUUUGGACUGGGCAGAGCUCAACACAGCGUGGCAAAGUGGCUGUGGCUAGACUGCCUCUCUGGAUUCCUCGUCACUCGGCGGGGCAUCUCUGAGAGAAAUGCC | 0.76
UACGUAGGUGGCUUUCCCCUGAUAGUGCUAAGGGGGCCUGGAAGUUUGGACUGGGCAGAGCUCAACACAGCGUGGCAAAGUGGCUGUGGCUAGACUGCCUCUCUGGAUUCCUCGUCACUCAGCGGGGCAUCUCUGAGAGAAGUGCC | 1.25
UACGUAGGUGGCUUUCCCCUGAUAGUGCUAAGGGGGCCUGGAAGUUUGGACUGGGCAGAGCUCAACACAGCGUGGCAAAGUGGCUGUGGCUAGACUGCCUCUCUGGAUUCCUCGUCACUCAGCAGGGCGUCUCUGGGAGAAAUGCC | 2.19
UACGUAGGUGGCUUUCCCCUGAUAGUGCUAAGGGGGCCUGGAAGUUUGGACUGGGCAGAGCUCAACACAGCGUGGCAAAGUGGCUGUGGCUAGACUGCCUCUCUGGAUUCCUCGUCACUCAGCAGGGCAUCUCUGAGAGUAACGCC | 1.37
UACGUAGGUGGCUUUCCCCUGAUAGUGCUAAGGGGGCCUGGAAGUUUGGACUGGGCAGAGCUCAACACAGCGUGGCAAAGUGGCUGUGGCUAGACUGCCUCUCUGGAUUCCUCGUCACUCAGCAGGGCAUCUCUGAGAGAGAAGCC | 1.51
UACGUAGGUGGCUUUUCCCUGAUAGUGCUAAGGCGGCCUGGAAGUUUGGACUGGGCAGAGCUCAACACAGCGUGGCAAAGAGGCUGUGGCUAGACUGCCUCUCUGGAUUCCUCGUCACUCGGCAGGGCAUCUCUGAGAGAAAUGCU | 2.04
UACGUAGGUGGCUUUUCCCUGAUAGUGCUAAGGGGGCCUGGAAGUUUGGACUGGGCAGAGCUCAACACAGCGUGGCAAAGUGGCCGUGGCUAGACUGCCUCUCUGGAUUCCUCGUCACUCAGCAGGGCAUCUCUGAGAGAAAUGCC | 0.21
UACGUAGGUGGCUUUCUCCUGAUAGUGCUAAGGGGGCCUGGAAGUUUGGACUGGGCAGAGCUCAACACAGCGUGGCGAAGUGGCUGUGGCUAGACUGCCUCUCUGGAUUCCUCGUCACUCAGCAGGGCAUCUCUGAGAGAAAUGCC | 2.78
UACGUAGGUGGCUUUCCCAUGAUAGUGCUAAGGGGGCCUGGAAGUUUGGACUGGGCAGAGCUCAACACAGCGUGGCAAAGUGGCUGUGGCUAGGCUGCCUCUCUGGAUUCCUCGUCACUCAGCAGGGCAUCUCUGAGAGAAAUGCC | 0.06
